Results as given in article PMC12136788.
The list shows a part of the results.

T1: UNK ZnF1-3 (human, UniProt Q9C0B0 31-174)
T1 sequence: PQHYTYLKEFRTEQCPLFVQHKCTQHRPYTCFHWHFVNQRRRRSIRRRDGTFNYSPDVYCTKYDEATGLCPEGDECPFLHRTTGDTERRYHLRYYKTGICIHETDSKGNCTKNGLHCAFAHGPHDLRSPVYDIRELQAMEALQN

B1: chr5:37680062:37680063:+_ENSMUSG00000029121_ENSMUST00000031004|mus_hu|mus_mus_mus_hu_False|38_78 (ssRNA)
RNA: GGGAGUUCUACAGUCCGACGAUCUUUGGGUGUAGCUGGUACCUCGUACACAGGACCAUCGUACAUGCCCCUGGAAACCCCUUGCAAUCCAAAAACCUUGCUUCUGAUUUUGACGCGCUGGUACAGGUGCUCCGGGAACGCCUUCAACAGAGGAUUGAGCAUCA
B2: chr7:65705844:65705845:+_ENSG00000169902_ENST00000304842|hu_mus|hu_hu_hu_mus_False|1_8 (ssRNA)
RNA: GGGAGUUCUACAGUCCGACGAUCAAACGGAUCUUUGUUACAUAAAUAAGGUGCCGGCUCCCCAUGUUUAACAAUGACCUCCAGAAGGAAGGCUUGCAUGGCAGAAUCUAGCACUUCAUCUGUGACACCAGCCUCAUCCAGGCGCAACAGAGGAUUGAGCAUCA
B3: chr19:8913615:8913616:-_ENSMUSG00000071658_ENSMUST00000096259|mus_hu|FALSE|FALSE (ssRNA)
RNA: GGGAGUUCUACAGUCCGACGAUCAGGGUACCAAAACCUUCUGCCUGAAAUGGGUGCCCCACCCAGUAGGGAGUUGCAGCUGAAAGUAUCUGAUGCAGAAGCAGUGACUAUACGAAAGGAGGCCCCUGGGGAGGGCCAGGCCAGCAACAGAGGAUUGAGCAUCA
B4: 156274125_156274366_1830_CDS_ENSG00000164114_ENST00000311277|human|control|control (ssRNA)
RNA: GGGAGUUCUACAGUCCGACGAUCUUUCUUUGCUCUUUCAUAUUCUCUCUCCUUUCUAUUUUUCUCUUUAAGAUAUUCCAUCUUUUUCUCUUUCCAUUUUUCAAAAGCUUGUAGUGCUUCUCCUUUUCUUGCAGCAUUUUCUUCCAACAGAGGAUUGAGCAUCA
B5: 77050538_77053148_775_3pUTR_ENSMUSG00000042272_ENSMUST00000102660|mouse|control|control (ssRNA)
RNA: GGGAGUUCUACAGUCCGACGAUCCCAGCAGCUCGUCAUCCAUAGGAGACCACGAGACCCCUCCGUCGGAGCCAUUAAAUCGACGCUGCUGUAAUUCAGAUAACAACUCAUGCCCUGUCUGAAGAACCGUCUCAGGAUCAACGGCAACAGAGGAUUGAGCAUCA
B6: chr14:102368134:102368135:+_ENSG00000078304_ENST00000445439|hu_hu|motif|central (ssRNA)
RNA: GGGAGUUCUACAGUCCGACGAUCGAGGGGUUCCAUGAUCUUCACAAAUUCUGAUGGUUCAAUGACAUCUAAAAUCUCUUCGGAUUCGUUUAAGAACAUUACUUCUUUUGGACUGUGAGUCUUUGGCCAGUAUUUGAGAAGUGCCAACAGAGGAUUGAGCAUCA
B7: 138067797_138068198_4638_CDS_ENSMUSG00000041642_ENSMUST00000075164|mouse|control|control (ssRNA)
RNA: GGGAGUUCUACAGUCCGACGAUCAAUGUGGCCAGUCAGUUUGCCAAUGGGCUGGAACCUGUUGAGCUCCCAGAUGCGGACAGCAUUGCCAGAGGCAACGUAUAGCAUGGAGCCUGAGGGGCUGAGGGCCAUCUGGUUGAUCUGCAACAGAGGAUUGAGCAUCA
B8: chr1:118502009:118502010:+_ENSG00000065183_ENST00000349139|hu_mus|motif|central (ssRNA)
RNA: GGGAGUUCUACAGUCCGACGAUCUGUUAAAAUCAUCCUUUUCCUGUUUUUUCGUUUUUUCUUCUUCUCUUCCAAGUGACGGGUAGCUUCUGCAAAAAACAUCACUUCACUCUUUGCUUCACACUCUCUCUUGAGAUAAUCGAGCAACAGAGGAUUGAGCAUCA
B9: chr9:111175947:111175948:+_ENSMUSG00000046785_ENSMUST00000060711|mus_mus|FALSE|FALSE (ssRNA)
RNA: GGGAGUUCUACAGUCCGACGAUCGGCCUGAAGUUUUGUUAGCUCCACUCUUACAGAAAUAGGCGCAUAUUCCGGUUUAAAGCUAAAUGGAUUUGAGAAAAGUUCUAAGUCCUUUUUAAUGAACCUGAGGUCCUUAAAAUGUCUCAACAGAGGAUUGAGCAUCA
B10: 117897688_117899135_1137_CDS_ENSMUSG00000033295_ENSMUST00000150096|mouse|control|control (ssRNA)
RNA: GGGAGUUCUACAGUCCGACGAUCGAUGUCUUCAUCGCAGCGGCCACACGGAAAUUCUUGGCAAACACUGCCCCUGUUGUAGUAACCACCUUGGGCUUGCUUCGGGCACCAUCCCCCUUAGUGGUGUAGGCAGCGACGGUGAUGCAACAGAGGAUUGAGCAUCA
B11: chr14:96998876:96998877:+_ENSG00000090060_ENST00000216277|hu_hu|FALSE|FALSE (ssRNA)
RNA: GGGAGUUCUACAGUCCGACGAUCAUAAAGCUGGCAAGUUCUUGCUACUAGCAUAGCCCAGGAAACACCACCGAGGAAACCUAAUAUAUUGGAAUAGAUGUUGUGGCGUUUGGCCCAUAGUUUGAUAGCUCUCAGAGUUAACCUCAACAGAGGAUUGAGCAUCA
B12: chr19:2271408:2271409:+_ENSG00000104904_ENST00000602676|hu_mus|motif|central (ssRNA)
RNA: GGGAGUUCUACAGUCCGACGAUCUGGGAUCUUCAGGGGUGGGUGAGGGACAUCGCACCACCGAGGCCCCGGACCCAGGUUACGGCAGCAAUUAAGGGCAACCCUAGAACUCUCGCUGCUGCAGCCGCCGCGGCUGUGCUGACUCAACAGAGGAUUGAGCAUCA
B13: chr14:89307221:89307222:+_ENSG00000165533_ENST00000346301|hu_mus|hu_hu_hu_mus_False|38_98 (ssRNA)
RNA: GGGAGUUCUACAGUCCGACGAUCUCCUGUUUGGUUAGUUCCAGGGAGCUUCAAAGAUGUGCCAGGGCGUGGGACCUGAGCAAUAGCAUUUUCAUCCAGCAUCAUUUCAGCAAUUCCUUCCUGGUCCACAUCAAUUUCAUCUAUCAACAGAGGAUUGAGCAUCA
B14: 49651088_49651498_709_3pUTR_ENSMUSG00000028309_ENSMUST00000029989|mouse|control|control (ssRNA)
RNA: GGGAGUUCUACAGUCCGACGAUCCCCUCUCUCACGGUCAUCUUUGCGUUCCUGAUUGCUAUCAGAGUCAGGUUCUGGUUCUGGCACAACCAAGGCUUUCCUUUCUGUGAGUAGGUCCCCCAAACCCUGGUCCAGAUCAUAACGCAACAGAGGAUUGAGCAUCA

target: T1, UNK ZnF1-3; experiment: nsRBNS (natural sequence RNA bind-n-seq); RBNS binding buffer (assumed for nsRBNS): 25 mM Tris pH 7.5, 150 mM KCl, 3 mM MgCl2, 0.01% Triton X-100, 500 ug/ml BSA, 20 U/ml SUPERase-In, 4 C; UNK is unkempt and MSI1 is Musashi-1; names of the RNAs are library labels; protein concentration not given here; high values mean tight binding

Row | Binder | binding signal [enrichment R]
1 | B1 | 0.777
2 | B2 | 0.635
3 | B3 | 1.5
4 | B4 | 0.19
5 | B5 | 0.996
6 | B6 | 0.763
7 | B7 | 0.836
8 | B8 | 0.531
9 | B9 | 0.757
10 | B10 | 0.916
11 | B11 | 1.12
12 | B12 | 0.886
13 | B13 | 1
14 | B14 | 0.639
